# Experimental data: PMC9911399, “Two distinct binding modes provide the RNA-binding protein RbFox with extraordinary sequence specificity”
# Positions count from the first letter of the chain named. The list shows a part of the results.
# B1: CACAUAG (DNA:RNA)
# RNA: GGGAGACCGGAAUUCAGAUUGUCCCACAUAGUUAAAUCCCGUCGUAGCCACCA
# DNA 1: CAATCTGAATTCCGGTCTCCC
# DNA 2: TGGTGGCTACGACGGGATT
# B2: UUCUCAU (DNA:RNA)
# RNA: B1 RNA with C25U, A26U, A28U, U29C, G31U
# DNA 1: CAATCTGAATTCCGGTCTCCC
# DNA 2: TGGTGGCTACGACGGGATT
# B3: GGAUGGC (DNA:RNA)
# RNA: GGGAGACCGGAAUUCAGAUUGUCCGGAUGGCUUAAAUCCCGUCGUAGCCACCA
# DNA 1: CAATCTGAATTCCGGTCTCCC
# DNA 2: TGGTGGCTACGACGGGATT
# B4: UUAUGAC (DNA:RNA)
# RNA: B3 RNA with G25U, G26U, G30A
# DNA 1: CAATCTGAATTCCGGTCTCCC
# DNA 2: TGGTGGCTACGACGGGATT
# B5: GAGUUAG (DNA:RNA)
# RNA: B1 RNA with C25G, C27G, A28U
# DNA 1: CAATCTGAATTCCGGTCTCCC
# DNA 2: TGGTGGCTACGACGGGATT
# B6: CCAGGUU (DNA:RNA)
# RNA: B3 RNA with G25C, G26C, U28G, G30U, C31U
# DNA 1: CAATCTGAATTCCGGTCTCCC
# DNA 2: TGGTGGCTACGACGGGATT
# B7: CGCAGGA (DNA:RNA)
# RNA: B1 RNA with A26G, U29G, A30G, G31A
# DNA 1: CAATCTGAATTCCGGTCTCCC
# DNA 2: TGGTGGCTACGACGGGATT
# B8: UCCACUC (DNA:RNA)
# RNA: B1 RNA with C25U, A26C, U29C, A30U, G31C
# DNA 1: CAATCTGAATTCCGGTCTCCC
# DNA 2: TGGTGGCTACGACGGGATT
# B9: UGCACUU (DNA:RNA)
# RNA: B1 RNA with C25U, A26G, U29C, A30U, G31U
# DNA 1: CAATCTGAATTCCGGTCTCCC
# DNA 2: TGGTGGCTACGACGGGATT
# B10: UAAUCAG (DNA:RNA)
# RNA: B1 RNA with C25U, C27A, A28U, U29C
# DNA 1: CAATCTGAATTCCGGTCTCCC
# DNA 2: TGGTGGCTACGACGGGATT
# B11: AUGCUCG (DNA:RNA)
# RNA: B1 RNA with C25A, A26U, C27G, A28C, A30C
# DNA 1: CAATCTGAATTCCGGTCTCCC
# DNA 2: TGGTGGCTACGACGGGATT
# B12: UCGUGGC (DNA:RNA)
# RNA: B3 RNA with G25U, G26C, A27G
# DNA 1: CAATCTGAATTCCGGTCTCCC
# DNA 2: TGGTGGCTACGACGGGATT
# B13: CAGACUA (DNA:RNA)
# RNA: B1 RNA with C27G, U29C, A30U, G31A
# DNA 1: CAATCTGAATTCCGGTCTCCC
# DNA 2: TGGTGGCTACGACGGGATT
# B14: UGCUGAA (DNA:RNA)
# RNA: B3 RNA with G25U, A27C, G30A, C31A
# DNA 1: CAATCTGAATTCCGGTCTCCC
# DNA 2: TGGTGGCTACGACGGGATT
# B15: CGAUAUU (DNA:RNA)
# RNA: B3 RNA with G25C, G29A, G30U, C31U
# DNA 1: CAATCTGAATTCCGGTCTCCC
# DNA 2: TGGTGGCTACGACGGGATT
# B16: AACCGUA (DNA:RNA)
# RNA: B1 RNA with C25A, A28C, U29G, A30U, G31A
# DNA 1: CAATCTGAATTCCGGTCTCCC
# DNA 2: TGGTGGCTACGACGGGATT
# B17: AGCAACC (DNA:RNA)
# RNA: B1 RNA with C25A, A26G, U29A, A30C, G31C
# DNA 1: CAATCTGAATTCCGGTCTCCC
# DNA 2: TGGTGGCTACGACGGGATT
# B18: CGCGCGG (DNA:RNA)
# RNA: B1 RNA with A26G, A28G, U29C, A30G
# DNA 1: CAATCTGAATTCCGGTCTCCC
# DNA 2: TGGTGGCTACGACGGGATT
# B19: ACUUAUU (DNA:RNA)
# RNA: B3 RNA with G25A, G26C, A27U, G29A, G30U, C31U
# DNA 1: CAATCTGAATTCCGGTCTCCC
# DNA 2: TGGTGGCTACGACGGGATT
# B20: GAUGCGU (DNA:RNA)
# RNA: B3 RNA with G26A, A27U, U28G, G29C, C31U
# DNA 1: CAATCTGAATTCCGGTCTCCC
# DNA 2: TGGTGGCTACGACGGGATT
# B21: GGCCCGG (DNA:RNA)
# RNA: B3 RNA with A27C, U28C, G29C, C31G
# DNA 1: CAATCTGAATTCCGGTCTCCC
# DNA 2: TGGTGGCTACGACGGGATT
# B22: CUCUGAU (DNA:RNA)
# RNA: B1 RNA with A26U, A28U, U29G, G31U
# DNA 1: CAATCTGAATTCCGGTCTCCC
# DNA 2: TGGTGGCTACGACGGGATT
# B23: CUGUUAG (DNA:RNA)
# RNA: B1 RNA with A26U, C27G, A28U
# DNA 1: CAATCTGAATTCCGGTCTCCC
# DNA 2: TGGTGGCTACGACGGGATT
# B24: AACUACA (DNA:RNA)
# RNA: B1 RNA with C25A, A28U, U29A, A30C, G31A
# DNA 1: CAATCTGAATTCCGGTCTCCC
# DNA 2: TGGTGGCTACGACGGGATT
# B25: GCAUGCG (DNA:RNA)
# RNA: B3 RNA with G26C, G30C, C31G
# DNA 1: CAATCTGAATTCCGGTCTCCC
# DNA 2: TGGTGGCTACGACGGGATT
# B26: ACAUCGC (DNA:RNA)
# RNA: B3 RNA with G25A, G26C, G29C
# DNA 1: CAATCTGAATTCCGGTCTCCC
# DNA 2: TGGTGGCTACGACGGGATT
# B27: GGCUUGC (DNA:RNA)
# RNA: B3 RNA with A27C, G29U
# DNA 1: CAATCTGAATTCCGGTCTCCC
# DNA 2: TGGTGGCTACGACGGGATT
# B28: GUUUUCC (DNA:RNA)
# RNA: B3 RNA with G26U, A27U, G29U, G30C
# DNA 1: CAATCTGAATTCCGGTCTCCC
# DNA 2: TGGTGGCTACGACGGGATT
# B29: CUUUAAU (DNA:RNA)
# RNA: B1 RNA with A26U, C27U, A28U, U29A, G31U
# DNA 1: CAATCTGAATTCCGGTCTCCC
# DNA 2: TGGTGGCTACGACGGGATT
# B30: AGCCACG (DNA:RNA)
# RNA: B1 RNA with C25A, A26G, A28C, U29A, A30C
# DNA 1: CAATCTGAATTCCGGTCTCCC
# DNA 2: TGGTGGCTACGACGGGATT
# B31: UUGUUAA (DNA:RNA)
# RNA: B1 RNA with C25U, A26U, C27G, A28U, G31A
# DNA 1: CAATCTGAATTCCGGTCTCCC
# DNA 2: TGGTGGCTACGACGGGATT
# Target: T1, RBFOX1 RRM (Homo sapiens, UniProt Q9NWB1 109-208)
# T1 sequence: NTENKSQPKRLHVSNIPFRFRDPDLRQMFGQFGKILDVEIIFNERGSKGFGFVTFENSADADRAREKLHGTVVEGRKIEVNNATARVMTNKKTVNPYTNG
# Test: EMSA; HiTS-Eq, 1 nM pool, 10 min; buffer printed only for the single-RNA assays: 10 mM Tris pH 7.5, 150 mM NaCl, 3.4 mM EDTA, 0.001% NP-40, 30 C
# Conditions: tags: His6 N-terminal (pET28a); label: 5' 32P
# Outline: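 Relative association constants, normalised to the cognate motif, were derived by comparing read counts of each RNA species with those of the control reaction. The RNA sequenced was the free fraction, separated by 8% native PAGE after a 10 min equilibration in 50 µL of 1 nM 5′-radiolabelled RNA (7 randomized nucleotides) with increasing concentrations of purified wild-type or mutant RbFox RRM.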
row,Binder,binding signal
1,B1,0.00225 KA relative to UGCAUGU
2,B2,0.00986 KA relative to UGCAUGU
3,B3,0.0116 KA relative to UGCAUGU
4,B4,0.0121 KA relative to UGCAUGU
5,B5,0.0108 KA relative to UGCAUGU
6,B6,0.00894 KA relative to UGCAUGU
7,B7,0.00896 KA relative to UGCAUGU
8,B8,0.00454 KA relative to UGCAUGU
9,B9,0.0136 KA relative to UGCAUGU
10,B10,0.0157 KA relative to UGCAUGU
11,B11,0.0294 KA relative to UGCAUGU
12,B12,0.0109 KA relative to UGCAUGU
13,B13,0.000273 KA relative to UGCAUGU
14,B14,0.0262 KA relative to UGCAUGU
15,B15,0.00438 KA relative to UGCAUGU
16,B16,0.00191 KA relative to UGCAUGU

row,Binder,binding signal
1,B17,0.00366 KA relative to UGCAUGU
2,B18,0.0117 KA relative to UGCAUGU
3,B19,0.00196 KA relative to UGCAUGU
4,B20,0.0175 KA relative to UGCAUGU
5,B21,0.0166 KA relative to UGCAUGU
6,B22,0.0118 KA relative to UGCAUGU
7,B23,0.0151 KA relative to UGCAUGU
8,B24,0.00222 KA relative to UGCAUGU
9,B25,0.916 KA relative to UGCAUGU
10,B26,0.00159 KA relative to UGCAUGU
11,B27,0.0328 KA relative to UGCAUGU
12,B28,0.0256 KA relative to UGCAUGU
13,B29,0.0018 KA relative to UGCAUGU
14,B30,0.00567 KA relative to UGCAUGU
15,B31,0.0121 KA relative to UGCAUGU
